# Measured values as given in the supplement of paper PMC8728848.
# The other results are listed elsewhere or left out.
# How the values were obtained:
# Test in all cases: glycan array binding signal (z-score within array); higher = stronger binding
# Settings in all cases: glycan notation: IUPAC condensed, linker removed
# [1] = biological target: Neu5Ac(a2-8)Neu5Ac(a2-3)[GalNAc(b1-4)]Gal(b1-4)Glc
# How it was run: (§1)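 From the Consortium for Functional Glycomics database, 3228 arrays were curated, keeping only those whose protein sequence was available. Binding is given as a within-array Z-score averaged across arrays sharing a protein sequence and across linkers. Negative Z-scores can be read as non-binding.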
# [2] = biological target: Neu5Ac(a2-8)Neu5Ac(a2-8)Neu5Ac
# How it was run: as §1
# [3] = biological target: Neu5Ac(a2-8)Neu5Ac(a2-8)Neu5Ac(a2-3)Gal(b1-4)Glc
# How it was run: as §1
# [4] = biological target: Neu5Ac(a2-8)Neu5Ac(a2-8)Neu5Ac(a2-3)[GalNAc(b1-4)]Gal(b1-4)Glc
# How it was run: as §1
# [5] = biological target: Neu5Ac(a2-8)Neu5Ac(a2-8)Neu5Ac(a2-8)Neu5Ac(a2-3)[GalNAc(b1-4)]Gal(b1-4)Glc
# How it was run: as §1
# Neu5Ac(b1-6)GalNAc = biological target: Neu5Ac(b1-6)GalNAc
# How it was run: as §1
# [6] = biological target: Neu5Ac(b2-6)Gal(b1-4)GlcNAc
# How it was run: as §1
# [7] = biological target: Neu5Ac9Ac(a2-6)Gal(b1-4)GlcNAc
# How it was run: as §1
# [8] = biological target: Neu5Gc(a2-3)Gal(b1-3)GlcNAc
# How it was run: as §1
# [9] = biological target: Neu5Gc(a2-3)Gal(b1-3)[Fuc(a1-4)]GlcNAc
# How it was run: as §1
# Neu5Gc(a2-3)Gal(b1-4)Glc = biological target: Neu5Gc(a2-3)Gal(b1-4)Glc
# How it was run: as §1
# [10] = biological target: Neu5Gc(a2-3)Gal(b1-4)GlcNAc
# How it was run: as §1
# [11] = biological target: Neu5Gc(a2-3)Gal(b1-4)[Fuc(a1-3)]GlcNAc
# How it was run: as §1
# [12] = biological target: Neu5Gc(a2-6)Gal(b1-4)GlcNAc
# How it was run: as §1
# Neu5Gc(a2-6)GalNAc = biological target: Neu5Gc(a2-6)GalNAc
# How it was run: as §1
binder,measurement,setting,value
"DCIR (Homo sapiens), Q9UMR7 (protein) MTSEITYAEVRFKNEFKSSGINTASSAASKERTAPHKSNTGFPKLLCASLLIFFLLLAISFFIAFVIFFQKYSQLLEKKTTKELVHTTLECVKKNMPVEETAWSCCPKNWKSFSSNCYFISTESASWQDSEKDCARMEAHLLVINTQEEQDFIFQNLQEESAYFVGLSDPEGQRHWQWVDQTPYNESSTFWHPREPSDPNERCVVLNFRKSPKRWGWNDVNCLGPQRSVCEMMKIHL",glycan array binding signal (z-score),[1],-0.373
same,glycan array binding signal (z-score),[2],-0.001
same,glycan array binding signal (z-score),[3],-0.304
same,glycan array binding signal (z-score),[4],-0.052
same,glycan array binding signal (z-score),[5],-0.266
same,glycan array binding signal (z-score),Neu5Ac(b1-6)GalNAc,-0.079
same,glycan array binding signal (z-score),[6],-0.27
same,glycan array binding signal (z-score),[7],-0.355
same,glycan array binding signal (z-score),[8],-0.279
same,glycan array binding signal (z-score),[9],0.047
same,glycan array binding signal (z-score),Neu5Gc(a2-3)Gal(b1-4)Glc,-0.322
same,glycan array binding signal (z-score),[10],-0.294
same,glycan array binding signal (z-score),[11],0.251
same,glycan array binding signal (z-score),[12],0.115
same,glycan array binding signal (z-score),Neu5Gc(a2-6)GalNAc,-0.266
